Reference: the supplement of paper PMC12217912
This is one part of the list. The full chains were built here from the parent and the listed change. Values near 0.05 are background.

B1: TEV protease; numbered along this chain (parent)
chain: MGESLFKGPRDYNPISSSICHLTNESDGHTTSLYGIGFGPFIITNKHLFRRNNGTLVVQSLHGVFKVKDTTTLQQHLVDGRDMIIIRMPKDFPPFPQKLKFREPQREERICLVTTNFQTKSMSSMVSDTSCTFPSGDGIFWKHWIQTKDGQCGSPLVSTRDGFIVGIHSASNFTNTNNYFTSVPKNFMELLTNQEAQQWVSGWRLNADSVLWGGHKVFMVKPEEPFQPVKEATQL

Variants of: B1
Experiment: raw area under fraction-flipped curve 0-4 h after induction (AUC4h, not background-subtracted), DNA-recorder readout of cleavage of the substrate (dimensionless); higher = more cleavage of the substrate by the protease variant
Conditions: temperature: 34 °C; time window: 0-4 h after rhamnose induction
Procedure: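 In vivo DNA recorder in E. coli TOP10(DE3) ΔrhaA at 34 °C. Each TEVp single-site mutant (parent TEVp 0) is paired with a single-site variant of the 7-mer TEVs (canonical ENLYFQ|S). The substrate sits between flexible linkers in a Bxb1-sfGFP-TEVs-SsrA fusion, so cleavage stabilises Bxb1 and speeds flipping of a recombination array, read by NGS. The value is the raw area under the fraction-flipped curve over 0-4 h after rhamnose induction (AUC4h), with ≥20 reads per time point. It is not background-subtracted; inactive controls average about 0.047.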
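Further: Bxb1 expression induced with 0.2% (w/v) L-rhamnose at OD600 near 0.5, cultures sampled hourly, flipped fraction per protease–substrate barcode pair counted by paired-end Illumina sequencing.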

L156K
area with substrate ENLYFQC: 0.0487
area with substrate ENLYFQD: 0.0484
area with substrate ENLYFQH: 0.047
area with substrate ENLYFQI: 0.0428
area with substrate ENLYFQK: 0.0448
area with substrate ENLYFQL: 0.0553
area with substrate ENLYFQM: 0.0316
area with substrate ENLYFQP: 0.0444
area with substrate ENLYFQR: 0.0597
area with substrate ENLYFQS: 0.0553
area with substrate ENLYFQT: 0.0547
area with substrate ENLYFQW: 0.054
area with substrate ENLYFQY: 0.0443

V229H
area with substrate ENLYFQC: 0.111
area with substrate ENLYFQD: 0.0692
area with substrate ENLYFQF: 0.0872
area with substrate ENLYFQG: 0.085
area with substrate ENLYFQH: 0.0788
area with substrate ENLYFQI: 0.0764
area with substrate ENLYFQL: 0.0584
area with substrate ENLYFQM: 0.0963
area with substrate ENLYFQN: 0.0784
area with substrate ENLYFQQ: 0.0655
area with substrate ENLYFQR: 0.0615
area with substrate ENLYFQS: 0.106

A232P
area with substrate ENLYFQC: 0.124
area with substrate ENLYFQF: 0.0706
area with substrate ENLYFQG: 0.102
area with substrate ENLYFQI: 0.0604
area with substrate ENLYFQK: 0.0785
area with substrate ENLYFQL: 0.0669
area with substrate ENLYFQM: 0.071
area with substrate ENLYFQN: 0.0771
area with substrate ENLYFQR: 0.0574
area with substrate ENLYFQS: 0.114
area with substrate ENLYFQT: 0.0771
area with substrate ENLYFQY: 0.11

P225W
area with substrate ENLYFQC: 0.0838
area with substrate ENLYFQD: 0.0596
area with substrate ENLYFQH: 0.0784
area with substrate ENLYFQI: 0.063
area with substrate ENLYFQP: 0.0512
area with substrate ENLYFQQ: 0.082
area with substrate ENLYFQR: 0.0515
area with substrate ENLYFQS: 0.0902
area with substrate ENLYFQV: 0.03
area with substrate ENLYFQW: 0.0521

P222M
area with substrate ENLYFQC: 0.109
area with substrate ENLYFQD: 0.0569
area with substrate ENLYFQG: 0.103
area with substrate ENLYFQH: 0.0524
area with substrate ENLYFQK: 0.057
area with substrate ENLYFQL: 0.065
area with substrate ENLYFQN: 0.0789
area with substrate ENLYFQP: 0.0496
area with substrate ENLYFQQ: 0.0618
area with substrate ENLYFQR: 0.0538
area with substrate ENLYFQS: 0.0969
area with substrate ENLYFQV: 0.0586
area with substrate ENLYFQY: 0.0683

P228N
area with substrate ENLYFQD: 0.0711
area with substrate ENLYFQE: 0.0765
area with substrate ENLYFQH: 0.0858
area with substrate ENLYFQI: 0.0547
area with substrate ENLYFQK: 0.0755
area with substrate ENLYFQL: 0.0633
area with substrate ENLYFQM: 0.0888
area with substrate ENLYFQN: 0.0774
area with substrate ENLYFQP: 0.0529
area with substrate ENLYFQR: 0.0727
area with substrate ENLYFQS: 0.104
area with substrate ENLYFQY: 0.0589

R160A
area with substrate ENLYFQC: 0.106
area with substrate ENLYFQE: 0.0667
area with substrate ENLYFQG: 0.0606
area with substrate ENLYFQH: 0.0898
area with substrate ENLYFQI: 0.0631
area with substrate ENLYFQK: 0.0817
area with substrate ENLYFQL: 0.07
area with substrate ENLYFQM: 0.104
area with substrate ENLYFQN: 0.0742
area with substrate ENLYFQP: 0.0865
area with substrate ENLYFQQ: 0.0721
area with substrate ENLYFQR: 0.0647
area with substrate ENLYFQS: 0.106
area with substrate ENLYFQT: 0.0576
area with substrate ENLYFQV: 0.0835
area with substrate ENLYFQY: 0.0635

S18Y
area with substrate ENLYFQD: 0.0589
area with substrate ENLYFQF: 0.0765
area with substrate ENLYFQH: 0.0797
area with substrate ENLYFQI: 0.0716
area with substrate ENLYFQK: 0.0628
area with substrate ENLYFQM: 0.0762
area with substrate ENLYFQQ: 0.0686
area with substrate ENLYFQR: 0.0541
area with substrate ENLYFQS: 0.0914
area with substrate ENLYFQV: 0.0544

D149S
area with substrate ENLYFQF: 0.0759
area with substrate ENLYFQG: 0.0709
area with substrate ENLYFQK: 0.0616
area with substrate ENLYFQM: 0.0691
area with substrate ENLYFQN: 0.0747
area with substrate ENLYFQR: 0.0619
area with substrate ENLYFQS: 0.0999
area with substrate ENLYFQT: 0.0586
area with substrate ENLYFQW: 0.0595

K230G
area with substrate ENLYFQC: 0.125
area with substrate ENLYFQD: 0.0877
area with substrate ENLYFQF: 0.075
area with substrate ENLYFQG: 0.087
area with substrate ENLYFQH: 0.0811
area with substrate ENLYFQI: 0.0526
area with substrate ENLYFQK: 0.0753
area with substrate ENLYFQN: 0.0875
area with substrate ENLYFQR: 0.0613
area with substrate ENLYFQS: 0.107
area with substrate ENLYFQV: 0.0689
area with substrate ENLYFQW: 0.0649
area with substrate ENLYFQY: 0.0891

P155M
area with substrate ENLYFQC: 0.0703
area with substrate ENLYFQD: 0.0522
area with substrate ENLYFQH: 0.0558
area with substrate ENLYFQI: 0.0518
area with substrate ENLYFQK: 0.0841
area with substrate ENLYFQL: 0.0639
area with substrate ENLYFQM: 0.0546
area with substrate ENLYFQR: 0.0498
area with substrate ENLYFQS: 0.0705
area with substrate ENLYFQT: 0.0543

V210D
area with substrate ENLYFQD: 0.0528
area with substrate ENLYFQI: 0.0752
area with substrate ENLYFQL: 0.0526
area with substrate ENLYFQM: 0.0459
area with substrate ENLYFQN: 0.0598
area with substrate ENLYFQP: 0.0509
area with substrate ENLYFQQ: 0.0513
area with substrate ENLYFQR: 0.0572
area with substrate ENLYFQS: 0.0767
area with substrate ENLYFQT: 0.0492
area with substrate ENLYFQY: 0.0527

G202V
area with substrate ENLYFQD: 0.0715
area with substrate ENLYFQH: 0.059
area with substrate ENLYFQK: 0.0537
area with substrate ENLYFQL: 0.0426
area with substrate ENLYFQR: 0.0567
area with substrate ENLYFQS: 0.064
area with substrate ENLYFQV: 0.0577
area with substrate ENLYFQW: 0.0529
area with substrate ENLYFQY: 0.0521

G202N
area with substrate ENLYFQC: 0.0808
area with substrate ENLYFQD: 0.0669
area with substrate ENLYFQF: 0.0669
area with substrate ENLYFQH: 0.0532
area with substrate ENLYFQI: 0.0591
area with substrate ENLYFQK: 0.0504
area with substrate ENLYFQL: 0.054
area with substrate ENLYFQM: 0.0685
area with substrate ENLYFQN: 0.0788
area with substrate ENLYFQP: 0.061
area with substrate ENLYFQR: 0.068
area with substrate ENLYFQS: 0.0793
area with substrate ENLYFQT: 0.0613
